Test results as given in the supplement of paper PMC10126150.
Values marked as one replicate rest on one cluster of the flow cell; about a third of the high ones do not repeat.

test system: ATP; assay: switch fluorescence ratio, 500 uM ATP over buffer (Cy3 cluster intensity, sum of 5 cycles each) (fold (ratio)); higher = stronger signal-on switching upon ATP binding; sequences stand for … in TCGTCGGCAGCGTCAGATGTGTATAAGAGACAGTTTTTTTTTTTTTTTTTTTTTTTTT…TC; settings: aptamer strand: ATP DNA aptamer (quencher-CACCTGGGGGAGTATTGCGGAGGAAGG + anchor), 100 nM annealed; ATP concentration: 500 uM; one replicate
Outline: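 Exposure to 500 uM ATP lasted 15 min at 22 °C before imaging, and a selection-buffer image was taken beforehand, for Cy3-labelled switching-strand clusters on a modified Illumina MiSeq flow-cell annealed to 100 nM quencher-labelled ATP aptamer. Five buffer/ATP cycles were run with NaOH stripping and re-annealing between them. The fluorescence ratio per cluster is summed target-cycle over summed buffer-cycle Cy3 intensity, averaged per switch-domain sequence. Clusters outside 100-1000 RFU were excluded.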

Sequence | switch fluorescence ratio
CGCATTGCCT | 1.09
CGCATTTCGT | 1.12
CGCCAAATC | 1.41
CGCCACCTGA | 1.07
CGCCAGAACG | 0.989
CGCCAGGTTA | 1.15
CGCCAGTATG | 1.02
CGCCCGACGA | 1.56
CGCCCGAGAT | 1.36
CGCCCGCCAA | 2.32
CGCCCGGAGT | 1.13
CGCCCGTGGG | 1.03
CGCCCTGTG | 2.34
CGCCCTTCTT | 1.06
CGCCGCCAAG | 2.38
CGCCGCGGTT | 1.05
CGCCGGGGAG | 0.998
CGCCGTTTTA | 1.01
CGCCTACAGC | 1.05
CGCCTCTGG | 1.05
CGCCTGAGGT | 1
CGCCTGCATG | 1.2
CGCCTGTCAT | 0.967
CGCCTTTTTA | 1
CGCGAAACTA | 0.978
CGCGAAATAG | 1.04

Sequence | switch fluorescence ratio
CGCGACAGGA | 1.04
CGCGACGTCT | 0.985
CGCGAGCGTC | 1.02
CGCGCAGCCT | 1.05
CGCGCATACG | 2.92
CGCGCGGAGG | 1.03
CGCGCGGTTG | 1.05
CGCGCGTCGC | 1.02
CGCGCGTTCT | 0.962
CGCGCGTTGT | 1.05
CGCGCTCATT | 1.03
CGCGCTCTAG | 1.01
CGCGCTCTGT | 1.01
CGCGCTGTCA | 1.02
CGCGGAAGAC | 1.84
CGCGGCAGAA | 1.06
CGCGGCCTTT | 1.01
CGCGTCCACG | 0.96
CGCGTGAAAA | 1.04
CGCGTGAGGC | 1.1
CGCGTGGACG | 1.03
CGCGTGGCTC | 1.06
CGCGTTAGCG | 0.98
CGCGTTAGTT | 0.981
CGCTAGAT | 1.07
CGCTAGATGT | 0.973

Sequence | switch fluorescence ratio
CGCTAGCGCC | 1.03
CGCTAGTGCC | 1.03
CGCTCCGTGA | 3.46
CGCTCGATAG | 1.23
CGCTCGATCA | 0.954
CGCTCGGACG | 1.03
CGCTCGGTAC | 1.56
CGCTCTCATA | 1.05
CGCTCTCTCT | 1.06
CGCTGAGGGC | 1
CGCTGATG | 1.01
CGCTGGCGAT | 1
CGCTGGCGCG | 1.03
CGCTGTCCGG | 1.01
CGCTTCTCAG | 1.03
CGCTTGTCT | 1.01
CGCTTTCGTA | 1.01
CGCTTTTTAG | 1.01
CGCTTTTTTC | 1.25
CGGAAATAAC | 1.09
CGGAAATTG | 0.95
CGGAACAGGG | 1
CGGAACGCAA | 5.07
CGGAAGAAAC | 0.983
CGGAAGCTCA | 1.11
CGGAAGGTGT | 1.23

Sequence | switch fluorescence ratio
CGGAATCGCT | 1.03
CGGAATGCA | 1.15
CGGAATTTCA | 1.02
CGGAATTTGT | 1.03
CGGACAAGAT | 1.72
CGGACCCCCT | 1.41
CGGACCCGAA | 1.02
CGGACCGATA | 1
CGGACCTGGT | 1.05
CGGACGTTGT | 0.972
CGGAGACTCA | 1.06
CGGAGATTCT | 0.977
CGGAGCCTTC | 1.76
CGGAGTAGTG | 1.08
CGGAGTCTCT | 1.09
CGGAGTCTGG | 1.02
CGGAGTTTG | 0.991
CGGATAAGTC | 0.986
CGGATCACTG | 0.98
CGGATCCTGG | 1.02
CGGATCGTTC | 1.02
CGGATGCAGG | 0.966
CGGATGCCAA | 1
CGGATGGGTC | 1.03
CGGATTAAGC | 0.958
CGGATTGGGT | 1.01

Sequence | switch fluorescence ratio
CGGATTTAAA | 0.887
CGGATTTCGC | 1.01
CGGATTTTAC | 1.03
CGGATTTTCG | 1.04
CGGCAACGGA | 0.991
CGGCAAGCGC | 1.34
CGGCAATAAA | 3.25
CGGCACAACT | 1.12
CGGCACCATC | 1.18
CGGCAGAATT | 1.9
CGGCAGACGG | 0.973
CGGCAGTTCT | 0.999
CGGCATATTA | 1.05
CGGCATCAC | 2.26
CGGCATTGCT | 1.09
CGGCCACCAA | 1.13
CGGCCAGGGT | 0.957
CGGCCCCGAT | 0.967
CGGCCCGAGC | 1.01
CGGCCTAGGG | 1.01
CGGCCTTTTG | 0.994
CGGCGAATGC | 0.989
CGGCGAGGCG | 0.991
CGGCGGTGTG | 1.03
CGGCGTGCCT | 0.993
CGGCGTGTCT | 1.04

Sequence | switch fluorescence ratio
CGGCTAAGCG | 1.02
CGGCTAATCT | 1.01
CGGCTAGGAT | 1.02
CGGCTATAAA | 0.952
CGGCTATTT | 0.979
CGGCTCCATC | 1.08
CGGCTCCGAA | 1.03
CGGCTGCCAG | 0.965
CGGCTGTAGA | 1.04
CGGCTTAAGC | 1
CGGCTTCTAG | 0.97
CGGCTTGAGC | 0.987
CGGCTTTTAG | 1.02
CGGGAAAGGG | 1.04
CGGGAACC | 1.02
CGGGAACGTG | 1.05
CGGGAAGATA | 1.07
CGGGAATGAG | 0.968
CGGGACATTT | 0.972
CGGGACGTGA | 1.01
CGGGACTGAA | 1.04
CGGGAGCAGC | 1.16
CGGGAGCGGC | 1.07
CGGGAGGCCC | 1.01
CGGGAGTCAA | 1.36
CGGGATAAAC | 1.07

Sequence | switch fluorescence ratio
CGGGATGACC | 0.996
CGGGATGGAA | 1.03
CGGGATTGTG | 0.932
CGGGCCCTCG | 1.01
CGGGCCCTGT | 1
CGGGCCGGT | 1.01
CGGGCTAATC | 1.13
CGGGGCCTAA | 1
CGGGGCGACC | 1.02
CGGGGCTCGG | 1.02
CGGGGCTGAT | 0.985
CGGGGGTAT | 0.972
CGGGGTGATT | 0.992
CGGGTACATT | 1.01
CGGGTACTGA | 0.985
CGGGTAGAC | 1.09
CGGGTAGAGC | 1.01
CGGGTGCGTC | 0.999
CGGGTGGATG | 0.961
CGGGTGTGAT | 1.03
CGGGTTCTTC | 0.984
CGGTAAAAT | 1.01
CGGTAAATTC | 1.12
CGGTAACTAA | 0.979
CGGTAATTTG | 0.979
CGGTACGCGG | 0.945

Sequence | switch fluorescence ratio
CGGTACGTGG | 0.99
CGGTAGAGC | 1.03
CGGTAGCAAC | 5.44
CGGTAGTTAT | 1
CGGTATGCGG | 0.946
CGGTCGACTG | 0.971
CGGTCGGCGG | 0.962
CGGTCGGGCT | 0.992
CGGTCTCGGG | 0.966
CGGTCTTCTA | 0.977
CGGTGACTCT | 1.02
CGGTGAGCCA | 0.977
CGGTGGAGTG | 0.995
CGGTGGCGCT | 1.06
CGGTGGGAGC | 0.974
CGGTGGTGGT | 0.973
CGGTGGTTAG | 1.02
CGGTGTATAT | 1
CGGTTAGAGT | 1.02
